Laboratory results: PubChem BioAssay (NCI)
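The compound was tested at five concentrations on cells cultured in 96-well plates, with a 48-hour exposure period. The concentration for 50% growth inhibition is given as GI50. At the TGI there is no net growth.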 Peptide text beside a SMILES is read from it.

System: NCI-H322M lung
Assay: NCI anticancer screen, dose series, 48 h

Structure (SMILES) | GI50 | TGI
CC(=O)NC(C)(C)C(=O)N1CCC[C@H]1C(=O)NC(C)(C)C(=O)N[C@@H](C)C(=O)NC(C)(C)C(=O)NC(C)(C)C(=O)N[C@@H](CCC(N)=O)C(=O)NC(C)(C)C(=O)N[C@H](C(=O)NC(C)(C)C(=O)NCC(=O)N[C@@H](CC(C)C)C(=O)NC(C)(C)C(=O)N1CCC[C@H]1C(=O)N[C@H](C(=O)NC(C)(C)C(=O)NC(C)(C)C(=O)N[C@@H](CCC(N)=O)C(=O)N[C@@H](CCC(N)=O)C(=O)N[C@H](CO)Cc1ccccc1)C(C)C)C(C)C (HELM PEPTIDE1{[ac].[Aib].P.[Aib].A.[Aib].[Aib].Q.[Aib].V.[Aib].G.L.[Aib].P.V.[Aib].[Aib].Q.Q.[OC[C@H](Cc1ccccc1)N[*:1]]}$$$$V2.0) | > 4.25 µM | > 4.25 µM
CC(Nc1c(C#N)cnc2ccc(-c3cncc(O)c3)cc12)c1ccccc1 (configuration not stated) | 1.75 µM | 7.74 µM
C#Cc1nc(C2=C(C)/C(=N/OCc3ccccc3)CC2)cs1 | > 100 µM | > 100 µM
CCNC(=O)N1CCc2cc(OC)c(OCCc3ccc(OC)cc3)cc2C1c1ccc([N+](=O)[O-])cc1C (configuration not stated) | 3.76 µM | > 100 µM
C#CCn1cccc1CNc1ccc(OC)cc1 | > 100 µM | > 100 µM
Cc1cc2nc3c4cc(C#N)ccc4n(CCN(C)C)c3nc2cc1C | 1.03 µM | 5.37 µM
